# Assay results reported in the supplement of paper PMC3334620.
# Over roughly 33,000 sequences, “E-score (-0.5 to 0.5)” has its median near -0.012; the highest 2% begin near 0.29. The list shows a part of the results.
# Target: T1, Ybr033w (UniProt P38073)
# T1 sequence: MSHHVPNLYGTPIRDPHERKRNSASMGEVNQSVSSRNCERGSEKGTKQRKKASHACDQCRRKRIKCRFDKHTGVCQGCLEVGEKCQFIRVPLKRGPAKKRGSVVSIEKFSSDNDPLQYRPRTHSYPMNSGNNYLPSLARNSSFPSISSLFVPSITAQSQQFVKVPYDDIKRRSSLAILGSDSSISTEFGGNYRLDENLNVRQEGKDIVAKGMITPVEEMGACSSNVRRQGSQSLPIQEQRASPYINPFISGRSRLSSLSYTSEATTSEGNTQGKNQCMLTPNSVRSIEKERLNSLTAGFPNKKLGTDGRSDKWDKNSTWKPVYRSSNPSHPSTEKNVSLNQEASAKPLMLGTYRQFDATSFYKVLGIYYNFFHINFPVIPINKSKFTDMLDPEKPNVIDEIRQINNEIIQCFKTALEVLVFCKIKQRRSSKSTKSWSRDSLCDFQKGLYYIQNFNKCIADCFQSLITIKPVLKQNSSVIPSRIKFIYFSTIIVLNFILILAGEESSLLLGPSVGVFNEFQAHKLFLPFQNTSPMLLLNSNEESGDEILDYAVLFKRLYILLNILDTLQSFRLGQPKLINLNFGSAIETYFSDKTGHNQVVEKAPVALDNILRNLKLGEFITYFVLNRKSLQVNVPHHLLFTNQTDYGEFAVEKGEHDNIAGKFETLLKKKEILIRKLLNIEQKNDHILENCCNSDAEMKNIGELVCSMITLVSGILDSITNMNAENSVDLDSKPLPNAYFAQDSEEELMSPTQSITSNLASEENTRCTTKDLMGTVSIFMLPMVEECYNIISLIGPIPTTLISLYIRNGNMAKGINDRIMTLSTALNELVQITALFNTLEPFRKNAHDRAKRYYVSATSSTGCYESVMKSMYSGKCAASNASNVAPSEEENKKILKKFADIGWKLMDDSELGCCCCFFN
# Assay: PBM E-score (8-mer binding enrichment) (E-score (-0.5 to 0.5)); higher = stronger / more preferred TF binding; most listed sequences are background and not binding sites
# Details: protein concentration: 200 nM; construct: GST-full length
# Procedure: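 Universal 'all 10-mer' protein binding microarrays (Agilent AMADID 015681) probed with GST-tagged S. cerevisiae TFs (full-length or DBD) made by in vitro transcription/translation (PURExpress), about 100-200 nM. Bound TF was detected with fluorescent anti-GST. Each ungapped 8-mer (which stands for itself and its reverse complement) is scored by the PBM enrichment score (E-score), a modified Wilcoxon-Mann-Whitney statistic from -0.5 to +0.5, computed with the Universal PBM Analysis Suite. Scale: above 0.35 generally sequence-specific binding.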
row,Sequence,PBM E-score
1,CTCCGCGC,-0.111
2,AGGGTCTC,-0.239
3,CTGCATGC,-0.0915
4,CGTGTGCA,-0.0791
5,AAACGCGC,0.00831
6,CAAGTGGG,-0.0947
7,CACCCGTC,-0.042
8,ACTCACTG,0.0718
9,AAGTGTAA,-0.05
10,CAACGGCC,-0.123
11,AACAACAA,0.264
12,AGCCATTG,0.119
13,AAAGTCAT,-0.0166
14,AGGACTAA,0.0642
15,CACGAGGG,-0.209
16,GAGCGGAA,0.191
17,AATGTGAC,0.0448
18,AGATCCAC,0.0307
19,ACAGGTAG,-0.106
20,AGCAAGGA,-0.0752
21,ACTGCGGG,-0.0222
22,ATCAGACG,-0.0427
23,AGTCGTAC,-0.0631
24,ATCCTCGG,0.167
25,AGAATAGC,0.129

row,Sequence,PBM E-score
1,TGGAGCAA,0.129
2,ACGAGGGG,-0.254
3,GCGTTGAC,-0.152
4,CCCAATAA,0.042
5,TACTGCTA,-0.0593
6,AGGGCCCT,-0.273
7,AAACACAT,0.213
8,ATCTGCTC,-0.109
9,GCAGGTTA,-0.185
10,AAATGACT,0.0631
11,AATGCTGA,0.0408
12,GCCGCTGA,-0.0774
13,GTATAAGA,0.146
14,GACCCTCA,-0.272
15,ATATACGC,0.0817
16,CGAAGTCC,-0.19
17,TGCCCGCA,-0.0361
18,AGCTTACG,-0.137
19,CCCACCTC,-0.244
20,GAGACAGC,-0.111
21,CCAAGTCG,0.0215
22,GCAGATAA,0.118
23,AATTATGA,0.256
24,CGCCACTA,-0.19
25,CGGAGACG,0.148

row,Sequence,PBM E-score
1,CGAACTGA,-0.0653
2,GAACTCCA,0.0411
3,TCCACAGA,0.0534
4,CGCCTAAG,-0.246
5,ATCGTGCG,0.214
6,ATTACGGG,0.0913
7,AGTTGTAT,0.0541
8,GAATATGC,0.0001
9,GCAAGCCA,-0.181
10,TAAGATCA,0.0811
11,GATACGGA,0.0867
12,CTACGGAC,-0.138
13,ATTGGCAC,-0.122
14,GAGCGTTA,0.113
15,AGACACCA,-0.0381
16,AGAGTACA,0.121
17,CCTGTTGA,0.0115
18,ACCCCGCA,-0.0412
19,AAAAACAG,0.00845
20,AGGCAAAT,0.055
21,GACTTGCA,-0.0525
22,AGCAATAA,-0.0947
23,AACGGAAC,0.0665
24,TCGACCCA,-0.0614
25,ATGCATGC,-0.0577

row,Sequence,PBM E-score
1,AGATCGCT,-0.0143
2,ATTCAAAT,0.214
3,CTCGCTAA,0.103
4,GCCAGACA,-0.0659
5,AGTGCTGG,-0.0111
6,CTACTGAC,-0.13
7,ATACCGGG,0.0699
8,GGTGTCAC,-0.132
9,AGGCGAGG,-0.2
10,ACAAACTG,0.0733
11,ATGTTATC,0.189
12,CGGGAAGA,0.189
13,ATTCTCTG,-0.0232
14,CGCCTCCG,-0.125
15,AGTTATCA,0.174
16,GAGCTATA,-0.196
17,AGAACTAT,0.275
18,TGTATCAA,0.23
19,ACCCGAGC,-0.0428
20,CAAGACAG,-0.0571
21,AGACGGTG,-0.193
22,CAGCAATG,-0.0957
23,CTACCTTC,0.03
24,ACGAGTTC,0.103
25,CCCAGCGA,-0.202

row,Sequence,PBM E-score
1,ACACAGAT,0.139
2,GGCCAACA,-0.172
3,ATGCCGAC,-0.0002
4,GCCGCCGC,-0.292
5,CTACTAAC,0.222
6,ACCTCTCA,-0.215
7,ATGGGGAC,-0.206
8,CAAAGACG,-0.11
9,CATGATTA,0.261
10,AACGCCAC,-0.2
11,CTCATCGA,-0.0576
12,AAAGCAGC,0.134
13,ACTACCCG,-0.029
14,GAACGCGC,-0.113
15,AGAGTGGA,0.0367
16,GCGACGAC,-0.0965
17,GAGACCTA,-0.16
18,GCCGTTCA,-0.0409
19,CCATAGAG,-0.0952
20,ACCACAAT,0.0398
21,GCGGATCC,-0.272
22,CCACAAGG,-0.118
23,AATTCATG,0.249
24,CCACTAGC,-0.109
25,CACCGATC,-0.0417

row,Sequence,PBM E-score
1,CAATGCCC,-0.253
2,ACTCACAA,0.161
3,AGGTGAAA,0.205
4,AGATCTAA,-0.0219
5,AGAGTGCG,-0.0358
6,GCCCGTAA,-0.0331
7,CAGAGAAG,-0.017
8,GGAATAGA,0.16
9,AAGGGTAT,0.12
10,GAAGTTGA,0.0406
11,CGACCGAA,-0.0989
12,ATGAACAG,0.06
13,ACTGACAG,0.055
14,CAGGCGTC,-0.181
15,CCATAATC,0.113
16,AGGCTGAC,-0.165
17,AAGCTAGC,0.00549
18,ATGCCGTG,-0.0779
19,ACGAGAGT,-0.0281
20,CAATCGAC,0.0305
21,AGGTTTCC,-0.128
22,AGCTTAGC,-0.152
23,AAAGCTGA,-0.066
24,GTTATTTA,0.258
25,ATGAATAG,0.153

row,Sequence,PBM E-score
1,CTCCTCCA,-0.0825
2,AGAGGAAC,0.0567
3,CCCTTAGG,-0.0585
4,GTGAAAAA,0.19
5,AGCGTTAG,-0.027
6,AGTATCAT,0.216
7,AGTCTTTA,0.0341
8,ATAGATAG,0.066
9,ACGCACAT,0.0191
10,TACGGGCA,-0.0654
11,CCAAGACA,0.122
12,CTCGCGAC,-0.056
13,AGCTGGAA,-0.0139
14,CTTGACTA,0.011
15,CCGAAACA,0.115
16,ACACGTCA,-0.0263
17,ATTCCTCA,0.124
18,AACCAGTC,0.0654
19,AGGCGTGG,-0.383
20,CCAAGCAG,-0.145
21,AACTAGCG,0.144
22,AATCTGTG,0.0911
